Experiment [1] has as its target T1, HA-FLNC-C, FLNC C-terminal wild type (Ig-like domains 19-24, G2133-P2726) (UniProt Q8VHX6).
T1 sequence: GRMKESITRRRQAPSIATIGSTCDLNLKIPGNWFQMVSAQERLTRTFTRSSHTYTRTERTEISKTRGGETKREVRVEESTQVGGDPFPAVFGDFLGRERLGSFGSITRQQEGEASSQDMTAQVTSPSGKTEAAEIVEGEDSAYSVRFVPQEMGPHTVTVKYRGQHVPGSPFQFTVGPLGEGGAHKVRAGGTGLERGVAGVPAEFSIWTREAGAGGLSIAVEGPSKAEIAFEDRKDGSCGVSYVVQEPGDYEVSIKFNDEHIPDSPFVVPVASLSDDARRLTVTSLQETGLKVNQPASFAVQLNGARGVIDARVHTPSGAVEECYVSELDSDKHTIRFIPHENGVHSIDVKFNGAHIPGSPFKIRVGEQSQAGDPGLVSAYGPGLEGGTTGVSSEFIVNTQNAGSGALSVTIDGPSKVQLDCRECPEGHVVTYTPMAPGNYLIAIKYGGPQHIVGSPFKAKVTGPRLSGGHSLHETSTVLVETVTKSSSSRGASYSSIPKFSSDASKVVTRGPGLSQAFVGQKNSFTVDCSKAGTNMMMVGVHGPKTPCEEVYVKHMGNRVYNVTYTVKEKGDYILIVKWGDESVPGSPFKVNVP
The experiment is described as follows: co-IP; HEK293T cells transfected with HA-FLNC constructs, Myc-FLNC-C and HSPB7, lysed in RIPA buffer after 24 h, precipitated with anti-HA affinity gel, western blot. In general terms: In western blotting, separated proteins are transferred to a membrane and probed.

Sequences of proteins named here, by UniProt entry; tags and fusion partners are left off.
UniProt P35385: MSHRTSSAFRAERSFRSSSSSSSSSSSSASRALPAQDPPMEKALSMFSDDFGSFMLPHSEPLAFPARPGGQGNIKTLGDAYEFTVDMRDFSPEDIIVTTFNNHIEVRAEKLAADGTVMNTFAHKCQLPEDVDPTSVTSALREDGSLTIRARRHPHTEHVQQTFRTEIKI

For experiment [2], the target named is T2, HA-W2711X, FLNC-C truncated within Ig-like domain 24 (G2133-W2711) (UniProt Q8VHX6).
T2 sequence: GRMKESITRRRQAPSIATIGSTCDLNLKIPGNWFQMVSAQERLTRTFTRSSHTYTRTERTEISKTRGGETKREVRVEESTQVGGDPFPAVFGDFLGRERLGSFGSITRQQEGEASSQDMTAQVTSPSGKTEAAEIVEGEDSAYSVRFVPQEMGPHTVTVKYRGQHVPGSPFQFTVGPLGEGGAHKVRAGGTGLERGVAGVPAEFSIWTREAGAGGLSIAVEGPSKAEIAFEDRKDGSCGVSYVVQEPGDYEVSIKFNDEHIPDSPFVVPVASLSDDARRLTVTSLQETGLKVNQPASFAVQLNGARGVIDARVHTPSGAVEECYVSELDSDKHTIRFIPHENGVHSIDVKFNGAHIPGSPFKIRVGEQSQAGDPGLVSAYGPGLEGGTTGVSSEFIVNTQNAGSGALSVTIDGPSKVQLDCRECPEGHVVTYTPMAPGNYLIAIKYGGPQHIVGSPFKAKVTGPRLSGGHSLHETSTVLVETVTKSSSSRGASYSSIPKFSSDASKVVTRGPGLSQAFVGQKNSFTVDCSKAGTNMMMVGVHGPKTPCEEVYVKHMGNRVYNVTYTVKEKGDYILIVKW
The experiment is described as above.

Experiment [3] deals with T3, HA-M2670D, FLNC-C with the point mutation M2670D (G2133-P2726) (UniProt Q8VHX6).
T3 sequence: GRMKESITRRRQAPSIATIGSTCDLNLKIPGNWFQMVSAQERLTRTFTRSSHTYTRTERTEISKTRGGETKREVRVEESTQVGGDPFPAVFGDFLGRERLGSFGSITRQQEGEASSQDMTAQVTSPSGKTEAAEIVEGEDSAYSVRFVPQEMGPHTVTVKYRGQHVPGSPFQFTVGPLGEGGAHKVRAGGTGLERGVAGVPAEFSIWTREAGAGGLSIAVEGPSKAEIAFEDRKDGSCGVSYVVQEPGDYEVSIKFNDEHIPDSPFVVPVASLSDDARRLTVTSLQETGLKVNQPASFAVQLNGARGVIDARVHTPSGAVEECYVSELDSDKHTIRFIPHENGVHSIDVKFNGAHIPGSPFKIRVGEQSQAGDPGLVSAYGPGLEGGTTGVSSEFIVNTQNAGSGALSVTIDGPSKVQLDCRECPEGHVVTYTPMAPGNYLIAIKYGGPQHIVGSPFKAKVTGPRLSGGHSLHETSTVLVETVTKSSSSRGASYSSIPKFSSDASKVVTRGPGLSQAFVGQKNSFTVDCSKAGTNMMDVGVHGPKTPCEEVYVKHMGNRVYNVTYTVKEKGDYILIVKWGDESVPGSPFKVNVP
The description is as above.

Experiment [4] addresses HSPB7 with knocked-in C-terminal FLAG tag (Flox allele) (mouse (endogenous in diaphragm muscle)) (UniProt P35385). The experiment is described as follows: co-IP; diaphragm extracts (500 ug) of Hspb7 Flox/Flox (FLAG knock-in) and wild-type mice incubated with anti-FLAG M2 affinity gel at 4°C overnight, washed with lysis buffer, western blot.

Results are given in words; binding and its absence hold for the method and conditions named. Binding seen in cells or lysates may run through a third protein. Some binding calls cover weakened binding; strength is not graded here. For some of these results: Where a sequence is shown, tags or fusion partners need not be part of it.

Consider “HSPB7, full-length mouse cDNA in pcDNA3 (from UniProt P35385 1-169)”, for which the figures for the binding entry in experiment [1], in experiment [2] and in experiment [3] were “binds”, “no binding” and “no binding”, respectively.

For the molecule “filamin C, endogenous in mouse diaphragm muscle (from UniProt Q8VHX6 1-2726)”, the binding result in experiment [4] was “binds”.

B1: Myc-FLNC-C, FLNC C-terminal wild type (Ig-like domains 19-24, G2133-P2726) (domain or fragment, UniProt Q8VHX6 2133-2726)
chain: GRMKESITRRRQAPSIATIGSTCDLNLKIPGNWFQMVSAQERLTRTFTRSSHTYTRTERTEISKTRGGETKREVRVEESTQVGGDPFPAVFGDFLGRERLGSFGSITRQQEGEASSQDMTAQVTSPSGKTEAAEIVEGEDSAYSVRFVPQEMGPHTVTVKYRGQHVPGSPFQFTVGPLGEGGAHKVRAGGTGLERGVAGVPAEFSIWTREAGAGGLSIAVEGPSKAEIAFEDRKDGSCGVSYVVQEPGDYEVSIKFNDEHIPDSPFVVPVASLSDDARRLTVTSLQETGLKVNQPASFAVQLNGARGVIDARVHTPSGAVEECYVSELDSDKHTIRFIPHENGVHSIDVKFNGAHIPGSPFKIRVGEQSQAGDPGLVSAYGPGLEGGTTGVSSEFIVNTQNAGSGALSVTIDGPSKVQLDCRECPEGHVVTYTPMAPGNYLIAIKYGGPQHIVGSPFKAKVTGPRLSGGHSLHETSTVLVETVTKSSSSRGASYSSIPKFSSDASKVVTRGPGLSQAFVGQKNSFTVDCSKAGTNMMMVGVHGPKTPCEEVYVKHMGNRVYNVTYTVKEKGDYILIVKWGDESVPGSPFKVNVP
B1: the binding entry in experiment [1] is given as “binds”; in experiment [2] it was “no binding”; in experiment [3], “no binding”.

Source of the values: article PMC4852768.
